# Among all 270,000 compounds or so, about 5,800 (2.1%) were called active. The inconclusive results got no clear call from the source; some entries with a clear call stand among them for comparison. The call rests on the fitted dose curve; in most records, active means well fitted inhibition curve with a large enough effect; inconclusive means small, poorly fitted or top-dose-only effect; inactive means flat fitted curve, though single readings scatter. Where the call is inconclusive, the potency comes from a doubtful curve fit.
# Target: Microtubule-associated protein tau (Homo sapiens) (UniProt P10636)
# Assay: qHTS for Inhibitors of Tau Fibril Formation, Thioflavin T Binding; further: nearly all actives have a fitted effect of over 55% in size
# Settings: recombinant tau K18 P301L (four-repeat tau fragment), heparin-induced fibrillization, ThT fluorescence; series mostly up to 57.4 µM
# Summary of the method: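 Heparin-induced fibrillization of the P301L-mutant K18 repeat-domain fragment of human tau was followed by ThT binding in quantitative high-throughput format.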
# Potency means the concentration at half of the fitted maximal effect; tags describe the fitted curve by direction and shape.
# UniProt P10636, sequence (P10636 whole entry, looked up): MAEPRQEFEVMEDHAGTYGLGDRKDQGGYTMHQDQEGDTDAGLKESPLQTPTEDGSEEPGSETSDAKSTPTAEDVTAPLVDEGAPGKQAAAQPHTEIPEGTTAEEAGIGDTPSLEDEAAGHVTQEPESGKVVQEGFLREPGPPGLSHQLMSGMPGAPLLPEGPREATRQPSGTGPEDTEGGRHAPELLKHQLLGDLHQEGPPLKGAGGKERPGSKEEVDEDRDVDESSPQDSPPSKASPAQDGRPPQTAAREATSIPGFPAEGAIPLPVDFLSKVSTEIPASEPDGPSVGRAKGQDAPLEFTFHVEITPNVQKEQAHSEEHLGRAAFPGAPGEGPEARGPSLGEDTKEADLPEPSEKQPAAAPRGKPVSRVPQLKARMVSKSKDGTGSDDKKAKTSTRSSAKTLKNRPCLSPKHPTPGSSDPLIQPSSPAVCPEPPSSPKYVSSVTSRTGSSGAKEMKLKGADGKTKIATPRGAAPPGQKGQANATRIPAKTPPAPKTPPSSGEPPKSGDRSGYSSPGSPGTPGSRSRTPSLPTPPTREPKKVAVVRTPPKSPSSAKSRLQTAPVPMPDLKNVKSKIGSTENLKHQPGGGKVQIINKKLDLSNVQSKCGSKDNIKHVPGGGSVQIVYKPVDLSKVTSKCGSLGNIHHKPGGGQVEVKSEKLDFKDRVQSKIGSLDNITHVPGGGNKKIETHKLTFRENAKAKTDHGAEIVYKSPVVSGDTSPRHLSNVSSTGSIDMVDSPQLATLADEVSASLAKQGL
row,SMILES,Potency
1,CCOC(=O)c1c(C)oc2nc(C)nc(N(C)Cc3ccccc3)c12,inactive
2,COc1ccc(/C=C/C(=O)c2cccs2)cc1OC,"inconclusive: 8.91 µM [inhibitor, partial curve]"
3,O=C(/C=C/c1ccc2c(c1)OCCO2)c1ccc(O)cc1,"inconclusive: 11.2 µM [inhibitor, partial curve, poor fit]"
4,COc1ccc(Nc2ccc(Cl)cc2)c(C(=O)O)c1,"inconclusive: 17.8 µM [inhibitor, partial curve]"
5,Cc1ccsc1/C=N/Nc1ncnc2nc[nH]c12,inactive
6,Cc1cc(OCC(=O)Nc2sc3c(c2C#N)CCC(C)C3)ccc1Cl (centres undefined),"inconclusive: 2.82 µM [inhibitor, full curve]"
7,O=C(Nc1ccccc1)Nc1cccc2ccccc12,"inconclusive: 1.12 µM [inhibitor, partial curve]"
8,N#Cc1c(C(F)(F)F)cc(-c2ccco2)nc1SCc1ccccn1,"inconclusive: 12.6 µM [inhibitor, partial curve]"
9,COC(=O)C1=CN(C(C)C)C=C(C(=O)OC)C1c1cc2c(cc1Br)OCO2,inactive
10,CCOC(=O)C1=C(C)NC(=O)C1CC(=O)O (centres undefined),"inconclusive: 11.2 µM [inhibitor, partial curve]"
11,CCN(CC)S(=O)(=O)c1cc([N+](=O)[O-])ccc1N=Nc1c(O)[nH]c2ccccc12,"inconclusive: 2.51 µM [inhibitor, full curve, poor fit]"
12,COc1ccc(N2CCN(C(=O)c3ccc(NS(=O)(=O)c4ccc(F)cc4)cc3)CC2)cc1,"inconclusive: 35.5 µM [inhibitor, partial curve]"
13,O=C(O)CC(C(=O)O)N1C(=O)/C(=C/c2ccc(-c3nc4ccccc4s3)o2)SC1=S (centres undefined),active: 7.94 µM
14,Cc1ccc2oc(-c3cccc(NC(=O)/C=C/c4cccc([N+](=O)[O-])c4)c3C)nc2c1,"inconclusive: 8.91 µM [inhibitor, partial curve]"
15,NS(=O)(=O)c1ccc(CCNC(=O)c2ccc(C#CC3(O)CCCCC3)cc2)cc1,"inconclusive: 10 µM [inhibitor, partial curve]"
16,CC1CC(C)(C)Nc2ccc(OC(=O)c3ccco3)cc21 (centres undefined),inactive
17,CN1CCN(c2ccc([N+](=O)[O-])cc2C(=O)c2ccc(Br)cc2)CC1,inactive
18,CCOc1cc(C=O)cc(Br)c1OCC(=O)NCCc1ccccc1,"inconclusive: 11.2 µM [inhibitor, partial curve]"
19,O=C(NCc1cccnc1)c1cc2nc(-c3cccs3)cc(C(F)(F)Cl)n2n1,"inconclusive: 28.2 µM [inhibitor, single point]"
20,O=C(NC1=NCCS1)c1ccc2c(c1)C(=O)N(Cc1ccco1)C2=O,inactive
21,O=C(NN=C1CCCCCC1)c1ccc(Br)o1,"inconclusive: 39.8 µM [inhibitor, single point]"
22,S=C(NCCCN1CCOCC1)Nc1ccc(N2CCOCC2)cc1,inactive
23,O=[N+]([O-])c1ccc(C=Nc2ccc(Cl)c([N+](=O)[O-])c2)s1,"inconclusive: 17.8 µM [inhibitor, partial curve]"
24,Cc1ccc(C)c(N2CCN(CCCNC(=O)c3ccc4nc(N5CCC(C)CC5)sc4c3)CC2)c1,"inconclusive: 12.6 µM [inhibitor, partial curve]"
25,N#C/C(=C/c1ccc(N2CCCCCC2)o1)c1ccc(Cl)cc1,active: 25.1 µM

row,SMILES,Potency
1,O=C(O)Cn1ncc2c1-c1ccoc1CC2,"inconclusive: 28.2 µM [inhibitor, single point]"
2,CC1=[N+](C)c2ccc3ccccc3c2C1(C)C,active: 14.1 µM
3,Cc1ccc(/C=N/N2CCN(c3ccncc3S(=O)(=O)N3CCCCC3)CC2)cc1,inactive
4,COC(=O)c1c(-c2ccc(C)cc2)csc1NC(=S)NC(=O)c1ccc(F)cc1,inactive
5,CCOc1ccc(C(=O)NCCc2csc(-c3cccc(C)c3)n2)cc1,"inconclusive: 7.08 µM [inhibitor, partial curve]"
6,CC(C)CC(=O)Nc1nnc(S(=O)(=O)N2c3ccccc3CC2C)s1 (centres undefined),"inconclusive: 28.2 µM [inhibitor, partial curve]"
7,COC(=O)c1cc2c(-c3ccccc3)c(C)c3ccccn3c-2c1C(=O)OC,active: 15.8 µM
8,CCCn1c2ccccc2c2cnn(CC(=O)Nc3cc(OC)c(OC)c(OC)c3)c(=O)c21,inactive
9,COc1cc(NC(C)CCCN)c2ncccc2c1Oc1ccccc1 (centres undefined),"inconclusive: 20 µM [inhibitor, partial curve]"
10,CCn1c(SCC(N)=O)nc2sc3c(c2c1=O)CCCC3,inactive
11,O=[N+]([O-])c1ccc(N/N=C/c2cn(Cc3ccc(F)cc3)c3ccccc23)nc1,inactive
12,Cc1onc(-c2ccccc2Cl)c1C(=O)N1CCOC12CCCCC2,inactive
13,CCCNC(=O)c1c(C)cc(=O)oc1C,inactive
14,CC(=O)c1ccc(OC(=O)c2cccs2)cc1,"inconclusive: 31.6 µM [inhibitor, single point]"
15,CCn1c(=NC(=O)c2ccco2)sc2cccc(F)c21,"inconclusive: 25.1 µM [inhibitor, partial curve]"
16,CCCc1cc(N2CCCC2)n2nc(C)c(-c3ccccc3)c2n1,"inconclusive: 39.8 µM [inhibitor, single point]"
17,O=C(CSc1nc2scc(-c3ccco3)c2c(=O)n1-c1ccccc1)NCC1CCCO1 (centres undefined),"inconclusive: 11.2 µM [inhibitor, partial curve]"
18,Nc1cc(=O)nc(SCC(=O)Nc2ccccc2)n1CCc1ccccc1,inactive
19,FC(F)(F)c1cccc(N2CCC(N=CN3CCCCCC3)=N2)c1,"inconclusive: 17.8 µM [inhibitor, partial curve]"
20,Cc1ccc(-c2ccc(C3C(C#N)=C(N)Oc4n[nH]c(C)c43)o2)cc1 (centres undefined),active: 6.31 µM
21,CC(=O)Nc1ccc(Nc2ccc3cc(S(=O)(=O)N4CCCCC4)ccc3n2)cc1,"inconclusive: 17.8 µM [inhibitor, partial curve]"
22,CCCNC(=O)NC1CCCCCCC1,inactive
23,O=C(Nc1ccccc1C(F)(F)F)N1CCCCCC1,inactive
24,COc1ccc(-c2cc3ccc(O)c(CN4CCN(C)CC4)c3oc2=O)cc1OC,"inconclusive: 39.8 µM [activator, single point]"
25,OC(CNCC1CCCO1)Cn1c2ccccc2c2ccccc21 (centres undefined),inactive

row,SMILES,Potency
1,O=C(Nc1nc2ccccc2[nH]1)c1ccc(F)cc1,inactive
2,CCN(c1ccccc1)S(=O)(=O)c1ccc(NC(=O)c2nc(S(C)(=O)=O)ncc2Cl)cc1,"inconclusive: 3.16 µM [inhibitor, full curve]"
3,CCOC(=O)c1cnc2ccc(OCC)cc2c1NCc1ccccc1OC,"inconclusive: 28.2 µM [inhibitor, partial curve]"
4,CCOC(=O)CC(=O)CSc1nc2ccc(C)cc2cc1C#N,"inconclusive: 14.1 µM [inhibitor, partial curve]"
5,NS(=O)(=O)c1ccc(CCNC(=O)/C=C/c2ccc([N+](=O)[O-])cc2)cc1,"inconclusive: 17.8 µM [inhibitor, partial curve]"
6,CCOC(=O)C1=c2/c(=C/c3ccncc3)c(N)c(C(=O)OC)n2C(=O)C(c2ccncc2)S1 (centres undefined),"inconclusive: 11.2 µM [inhibitor, partial curve]"
7,NS(=O)(=O)c1ccc(N/C=C\C(=O)c2ccc3ccccc3c2)cc1,"inconclusive: 0.631 µM [inhibitor, full curve]"
8,CCOC(=O)c1cc(-c2ccc(OC)c(S(=O)(=O)N3CCN(c4ccccc4)CC3)c2)on1,inactive
9,O=C1C(Cl)=C(Nc2ccccc2O)C(=O)N1CCc1ccccc1,active: 10 µM
10,CSc1nnc(-c2cc(Br)ccc2N=Cc2c(C)[nH]n(-c3ccccc3)c2=O)c(=O)[nH]1,inactive
11,Cc1ccccc1OCC(=O)Nc1ccc2nc(SCC(=O)N3CCCC3)sc2c1,"inconclusive: 7.08 µM [inhibitor, partial curve]"
12,Cc1ccc(-c2cc(N)n(-c3ccccc3)n2)cc1,"inconclusive: 3.55 µM [inhibitor, full curve, poor fit]"
13,Clc1cccc(CN2CCC(Cc3ccccc3)CC2)c1,active: 17.8 µM
14,CCC(Nc1ccc(-c2nc(-c3cccnc3)no2)cc1[N+](=O)[O-])c1ccccc1 (centres undefined),"inconclusive: 0.251 µM [activator, partial curve, poor fit]"
15,COc1cccc(CNc2cc(CSc3ccc(Cl)cc3)nc(C)n2)c1,"inconclusive: 31.6 µM [inhibitor, partial curve, poor fit]"
16,COc1ccc(N2C(=O)CC(C3CCCO3)C2=O)cc1 (centres undefined),inactive
17,COc1ccc(CNC(=O)C(C#N)c2nc3ccccc3nc2N2CCN(C)CC2)cc1 (centres undefined),active: 15.8 µM
18,O=c1oc2c(CN3CCCCCC3)c(O)ccc2cc1-c1nc2ccccc2[nH]1,"inconclusive: 0.891 µM [activator, full curve]"
19,COc1ccccc1Nc1nc(-c2ccccc2)c(CC(=O)O)s1,inactive
20,CC1CCCC(C)N1C(=O)CSc1nc2ccccc2s1 (centres undefined),"inconclusive: 39.8 µM [inhibitor, partial curve]"
21,COc1ccccc1CNC(=O)C1CCN(S(=O)(=O)Cc2ccccc2)CC1,"inconclusive: 2.82 µM [inhibitor, full curve]"
22,CCOc1ccc(NC(=O)CCSc2ccc3ccccc3n2)cc1,"inconclusive: 14.1 µM [inhibitor, partial curve]"
23,CC(=O)N/C(=C\c1ccc(C)cc1)C(=O)O,inactive
24,O=c1c2cccc3c(N4CCOCC4)ccc(c32)c2nc3ccccc3n12,"inconclusive: 15.8 µM [inhibitor, partial curve]"

# Source: PubChem BioAssay AID1460 (National Center for Advancing Translational Sciences (NCATS), 2008)
